Reference: ChEMBL document CHEMBL1201862, “PubChem BioAssay data set” (2004)

What follows are compounds tested on NCI-H322M (assay: DTP human tumour cell line panel, 48 h).

| Structure (SMILES) | GI50 |
| --- | --- |
| S=C(Nc1ccc2cn[nH]c2c1)Nc1ccc2cn[nH]c2c1 | inactive: > 100 µM |
| CC(C)CN(CC#N)CC(C)C | inactive: > 100 µM |
| COc1ccc(C[C@@H]2OC3(C=CC(=O)C=C3)O[C@H]2Cc2ccc(OC)cc2)cc1 | inactive: 13.2 µM |
| N#CC[N+]1(Cc2ccccn2)CCCC1 | inactive: > 100 µM |
| CC(C)(C)C1CCC2c3c([nH]c4ccccc34)C3C(=O)N(c4ccc(Cl)cc4)C(=O)C3C2C1 (configuration not stated) | inactive: > 10 µM |
| CCS(CC)(CC)CC1CCCC2=CCC(P(=O)(c3ccccc3)c3ccccc3)CC21 (configuration not stated) | inactive: 12.1 µM |
| COC(=O)/C=C1/OC(c2ccc(C)cc2C)=CC1=O | inactive: 18.6 µM |
| CC1(C)CCC(=O)c2c(O)ccc(O)c21 | inactive: > 100 µM |
| C1=N\CCNCCNCC/N=C\c2ccc(cc2)OCc2cccc(n2)COc2ccc/1cc2 | inactive: > 100 µM |
| CC1=NN(C2=NS(=O)(=O)c3ccccc3N2C)C(=O)C1 | inactive: > 100 µM |
| COc1cc(/C=C2\C(=O)N(c3ccccc3Cl)C(c3ccccc3)S2(=O)=O)cc(OC)c1OC (configuration not stated) | inactive: 46.5 µM |
| COc1ccc(C(=O)C(c2ccc(OC)cc2)C2(O)C(=O)Nc3c(Cl)cc(Cl)cc32)cc1 (configuration not stated) | inactive: 20.6 µM |
| COC(OC)c1cccnc1C | inactive: > 100 µM |
| COc1cc2c(c(O)c1OC)C(O)C1CCC(=O)N1C2c1cccc2ccccc12 (configuration not stated) | inactive: > 100 µM |
| Br/C(=N\N=c1/nn[nH][nH]1)c1ccncc1 | inactive: > 100 µM |
| COc1ccc2c3c1OC1C(OC)(OC)CC4(C=C2)CN(C)CCC314 (configuration not stated) | inactive: > 100 µM |
| CCN(CC)C(=O)N1CCN(C=S)CC1 | inactive: > 100 µM |
| Clc1ccc2nc3[nH]nc(Cl)c3nc2c1 | inactive: 39.4 µM |
| Cc1cc2c(C)n(Cc3ccc(Cl)cc3Cl)nc2c(C#N)c1C | inactive: 80.7 µM |
| OC[C@H](O)[C@@H](OCc1ccccc1)[C@H](NCc1ccccc1)c1cccs1 | inactive: > 100 µM |
| CCN1C(NCCO)=NS(=O)(=O)c2ccccc21 | inactive: > 100 µM |
| COc1ccc2nccc(C3OC(=O)N4CCC(=O)CC34)c2c1 (configuration not stated) | inactive: > 100 µM |
| Clc1ccc(/N=N/c2nc3ccccc3nc2/N=N/c2ccc(Cl)cc2Cl)c(Cl)c1 | inactive: > 100 µM |

| Structure (SMILES) | GI50 |
| --- | --- |
| O=C1NC(=O)C23C(=O)NC(=O)C12C1C=CC3CC1 (configuration not stated) | inactive: > 10 µM |
| O=C1C=C(O)C(=Cc2c(O)cc(O)cc2O)C(O)=C1 | inactive: > 100 µM |
| C=CC(C)(C)n1cc(C2=C3OC(=O)C(c4cn(C(C)(C)C=C)c5ccccc45)=C3OC2=O)c2ccccc21 | inactive: > 100 µM |
| CC1(C)OC(CCO)CN1C(=O)OCc1ccccc1 (configuration not stated) | inactive: > 100 µM |
| CCc1nc2c(c(N(C)C)c1C(=O)OC)CCc1ccccc1-2 | inactive: 47.3 µM |
| C/C=C/OC1C(C2COC(C)(C)O2)OC2OC(C)(C)OC21 (configuration not stated) | inactive: > 100 µM |
| CCOc1ccc(NC2=NC(=O)C(CC(=O)Nc3ccc(Cl)cc3Cl)S2)cc1 (configuration not stated) | inactive: > 100 µM |
| COc1ccc(/C=C2\N=C(N3CCOCC3)NC2=O)cc1 | inactive: > 100 µM |
| CCOC(=O)[C@@]1(C)CC(O)C(=O)N1C (some centres not stated) | inactive: > 100 µM |
| N#CC(C#N)=CSc1ccccc1 | inactive: 59.4 µM |
| CCc1cc(C)cc2[n+]1CC=C2.[O-][Cl+3]([O-])([O-])[O-] | inactive: > 100 µM |
| COC(=O)/C=C\C(C#N)(C#N)/N=C/c1ccc(C)s1 | inactive: 15.5 µM |
| N=C(N)N/N=C/c1cnn(C(=N)N)c1 | inactive: > 100 µM |
| O=c1c2ccccc2n2n1CC(O)C2 (configuration not stated) | inactive: > 100 µM |
| COC1OC(CO)C(O)C1N (configuration not stated) | inactive: > 100 µM |
| COC(=O)C1CCC(=S)N1C(C)=O (configuration not stated) | inactive: 7.6 µM |
| CS(=O)(=O)Nc1ccc2c(c1)oc(=O)c1ccccc12 | inactive: > 100 µM |
| COC(=O)c1ccc(/C=N/c2cc(C)nn2-c2ccccc2)cc1 | inactive: 46.2 µM |
| NC(=O)c1nnsc1NN=O | inactive: > 100 µM |
| Cn1c(=O)oc2cc(C(O)CN3CCN(Cc4ccccn4)CC3)c(Cl)cc21 (configuration not stated) | inactive: > 100 µM |
| NC(CS)C(=O)NCCNc1ccc(NCCNC(=O)C(N)CS)c2c1C(=O)c1c(O)ccc(O)c1C2=O (configuration not stated) | active: 0.263 µM |
| O=C(Sc1c(-c2ccccc2)c(=O)n(-c2ccccc2)c(=S)n1-c1ccccc1)c1cccs1 | inactive: > 100 µM |
| CC1C/C(=N\N(C)C)C(C#N)(C#N)C1(C#N)C#N (configuration not stated) | inactive: > 42.5 µM |

| Structure (SMILES) | GI50 |
| --- | --- |
| COc1cccc2c1C(=O)c1c(O)c3c(c(O)c1C2=O)C[C@@](O)(C(=O)CO)C[C@@H]3OC1CC(N)CC(C)O1 (some centres not stated) | active: 0.0412 µM |
| COC(=O)C(=O)C(C(=O)C(=O)Nc1cc([N+](=O)[O-])ccc1[N+](=O)[O-])c1nc2ccc(C(=O)c3ccccc3)cc2nc1O (configuration not stated) | inactive: 88.1 µM |
| CCCOC(=O)NC(C)C(=O)NC(CCC(=O)NC(CCCC(N)C(=O)O)C(=O)NC(C)C(=O)O)C(=O)O (configuration not stated) | inactive: 19.9 µM |
| O=C(Cc1ccccc1)N/N=C(\C1=Nc2ccc([N+](=O)[O-])cc2NC1O)C(O)c1ccc([N+](=O)[O-])cc1 (configuration not stated) | inactive: > 100 µM |
| NC(=O)c1csc(C2(O)COC(CO)C2O)n1 (configuration not stated) | inactive: > 100 µM |
| Nc1nc2c(c(-c3cccc(Cl)c3)n1)COC/C2=C\c1cccc(Cl)c1 | inactive: > 100 µM |
| OCCN(/N=C\c1ccc2ccccc2c1)C1=NCCN1 | inactive: 29.3 µM |
| O=c1cc(-c2ccccc2)oc2c(-c3cc(Cl)cc4c(=O)cc(-c5ccccc5)oc34)cc(Cl)cc12 | inactive: 20.8 µM |
| Cc1c(C(=O)/C=C/c2ccco2)[n+]([O-])c2ccccc2[n+]1[O-] | inactive: > 100 µM |
| COc1ccc(/C=C2\C(=O)N(C)C(=O)c3cc(OC)c(OC)cc32)cc1OC | inactive: 59.3 µM |
| CCOC(=O)c1cc(C2(OC)CCN(Cc3ccccc3)C2=O)c(-c2cc(C)no2)[nH]1 (configuration not stated) | inactive: > 100 µM |
| CC1OC(OC2C(O)COC(OC3C(C)OC(OC4C(OC(=O)[C@]56CCC(C)(C)C[C@@H]5C5=CCC7[C@@]8(C)C[C@H](O)[C@H](OC9OC(CO)C(O)C(O)C9O)[C@@](C)(CO)[C@@H]8CC[C@@]7(C)[C@]5(C)CC6)OCC(O)C4O)C(O)C3O)C2O)C(O)C(O)C1O (some centres not stated) | inactive: 17.8 µM |
| O=C(OC1OC2COC(=O)c3cc(O)c(O)c(O)c3-c3c(cc(O)c(O)c3O)C(=O)OC3C2OC(=O)[C@@]24CC(=O)[C@@](O)(OC25C(=O)O[C@H]2[C@@H](O)CO[C@@]25O)C2(O)Oc5c(O)c(O)cc(c5C24)C(=O)OC13)c1cc(O)c(O)c(O)c1 (some centres not stated) | inactive: 20.8 µM |
| CCC1=CCC23C(=O)C=CC(=O)C2(C1)C(=O)c1cccc(OC)c1C3=O (configuration not stated) | inactive: 30.3 µM |
| Cc1cc(S(=O)(=O)/N=C(\NN)NNc2cccc(C(F)(F)F)n2)c(S)cc1Cl | inactive: 29.1 µM |
| O=C(Oc1cccc2cccnc12)c1cc2cc(CCl)ccc2oc1=O | inactive: 30 µM |
| CCCCC/C=C1/CC(CO)(COC(=O)CC(C(C)C)C(C)C)OC1=O (configuration not stated) | inactive: 18.1 µM |
| O=C(NC1CCN(Cc2ccccc2)CC1)c1ccc(I)cc1 | inactive: > 100 µM |
| c1ccc2c(c1)CCN2CCN1CCc2ccccc21 | inactive: > 10 µM |
| c1ccc2c(c1)c1c(c3ccccc32)CN2CCCC2C1 (configuration not stated) | inactive: 4.13 µM |
| COc1cccc(-c2cc(O)c3cc(Cl)cnc3n2)c1 | active: 0.728 µM |

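The compound was tested at five concentrations on cells cultured in 96-well plates, with a 48-hour exposure period. GI50 marks 50% less growth.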 Activity calls are given as the source filed them. Cut-off read from the data, not from the text of the source: active = GI50 up to about 1.1 µM and inactive = higher.
